Measured values: US20250388696A1 (NAVIGO PROTEINS, published 2025)

Tests used:
human serum albumin = molecular target: T1, human serum albumin (human, UniProt P02768 25-609); experiment: SPR, HSA immobilised on the chip, pH 7.3, 1:1 Langmuir fit [continued]
T1 construct: also called HSA
Protocol: Recombinant protein A, HSA, MSA or target (either ED-B or Her2) was immobilized on a High Capacity Amine sensor chip (Bruker) after NHS/EDC activation with a Sierra SPR-32 system (Bruker). The chip was equilibrated with SPR running buffer (PBS 0.05%, Tween pH 7.3). Injection of ethanolamine after target immobilization was used to block free NHS groups. To determine the binding of fusion proteins to FAP, the Fc-tagged target was injected with 60 or 30 nM to Protein A coupled spots followed by the injection of fusion proteins.
Binding proteins were applied to the chip in serial dilutions with a flow rate of 30 μl/min. Upon binding, analyte accumulated on the surface increasing the refractive index. This change in the refractive index was measured in real time and plotted as response or resonance units versus time. The association was performed for 120 seconds and the dissociation for 180 seconds. After each run, the chip surface was regenerated with 30 μl regeneration buffer (10 mM glycine pH 2.0 or pH 1.5) and equilibrated with running buffer. Binding studies were carried out using the Sierra SPR-32 system (Bruker); data evaluation was operated via the Sierra Analyser software, provided by the manufacturer, by the use of the Langmuir 1:1 model (RI=0).

hFAP-Fc [1] = molecular target: T2, hFAP-Fc (human, UniProt Q12884 26-760, limits assumed); experiment: ELISA on coated hFAP-Fc; 0 h in mouse serum
T2 construct: also called Fc-tagged target (FAP)
T2 sequence (looked up): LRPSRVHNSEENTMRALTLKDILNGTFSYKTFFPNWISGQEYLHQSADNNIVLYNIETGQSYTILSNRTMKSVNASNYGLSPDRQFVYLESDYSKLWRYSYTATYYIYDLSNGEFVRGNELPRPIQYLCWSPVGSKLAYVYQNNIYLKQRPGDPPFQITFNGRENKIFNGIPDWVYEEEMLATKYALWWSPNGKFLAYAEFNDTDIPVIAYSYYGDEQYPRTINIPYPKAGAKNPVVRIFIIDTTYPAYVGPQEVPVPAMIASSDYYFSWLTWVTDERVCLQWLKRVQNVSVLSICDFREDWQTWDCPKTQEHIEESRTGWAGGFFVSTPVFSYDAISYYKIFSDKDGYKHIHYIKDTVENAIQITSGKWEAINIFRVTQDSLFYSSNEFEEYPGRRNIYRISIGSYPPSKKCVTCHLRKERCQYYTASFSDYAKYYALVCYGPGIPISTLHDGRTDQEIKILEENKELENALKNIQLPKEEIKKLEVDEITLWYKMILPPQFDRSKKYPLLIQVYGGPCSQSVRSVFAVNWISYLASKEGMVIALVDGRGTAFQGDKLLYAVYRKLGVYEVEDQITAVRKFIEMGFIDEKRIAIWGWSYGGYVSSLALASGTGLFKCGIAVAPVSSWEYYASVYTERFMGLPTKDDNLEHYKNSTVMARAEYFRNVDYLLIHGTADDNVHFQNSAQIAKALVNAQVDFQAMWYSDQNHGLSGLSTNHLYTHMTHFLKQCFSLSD
Protocol: (§1) High binding plates (Greiner, 781061) were immobilized with 2.5 μg/ml hFAP-Fc or 1.2 μg/ml Her2-Fc over night at 4° C. Dilution series of 3 μM to 0.07 pM of fusion proteins with binding specifically to Her2 were incubated in 100% human serum or 100% mouse serum for 24 h at 37° C. Dilution series of 3 µM to 0.2 pM or 1 μM to 0.01 fM of fusion proteins with binding specifically to hFAP were incubated in 100% human serum or 100% mouse serum for 24 h at 37° C. ELISA-plates were washed three times with PBST (PBS+0.1% Tween) and blocked with 3% BSA/0.5% Tween/PBS up to 2 h at room temperature (rt). After preincubation for 0 h or 24 h in the presence of serum the dilution series were incubated on ELISA-plates for up to 1 h at rt. Wells were washed with PBST and incubated with biotinylated anti-ubiquitin-antibody (1:300) for up to 1 h at rt. The binding was visualized with Streptavidin-HRP (1:5.000).
(§2) The fusion proteins comprise the albumin binding domain (referred to as HED) and the targeting moiety.

hFAP-Fc [2] = molecular target: T2, hFAP-Fc; experiment: ELISA on coated hFAP-Fc; 0 h in human serum
Protocol: as §1, §2

hFAP-Fc [3] = molecular target: T2, hFAP-Fc; experiment: ELISA on coated hFAP-Fc; 24 h in mouse serum at 37 C
Protocol: as §1, §2

hFAP-Fc [4] = molecular target: T2, hFAP-Fc; experiment: ELISA on coated hFAP-Fc; 24 h in human serum at 37 C
Protocol: as §1, §2

hFAP-Fc [5] = molecular target: T2, hFAP-Fc; experiment: ELISA on coated hFAP-Fc; KD 24 h against KD 0 h, mouse serum
Protocol: as §1, §2

hFAP-Fc [6] = molecular target: T2, hFAP-Fc; experiment: ELISA on coated hFAP-Fc; KD 24 h against KD 0 h, human serum
Protocol: as §1, §2

hFAP-Fc [7] = molecular target: T2, hFAP-Fc; experiment: SPR
mouse serum albumin = molecular target: T3, mouse serum albumin (mouse, UniProt P07724 25-608); experiment: SPR
T3 construct: also called MSA

human serum albumin, sequence (P02768 25-609 limits assumed): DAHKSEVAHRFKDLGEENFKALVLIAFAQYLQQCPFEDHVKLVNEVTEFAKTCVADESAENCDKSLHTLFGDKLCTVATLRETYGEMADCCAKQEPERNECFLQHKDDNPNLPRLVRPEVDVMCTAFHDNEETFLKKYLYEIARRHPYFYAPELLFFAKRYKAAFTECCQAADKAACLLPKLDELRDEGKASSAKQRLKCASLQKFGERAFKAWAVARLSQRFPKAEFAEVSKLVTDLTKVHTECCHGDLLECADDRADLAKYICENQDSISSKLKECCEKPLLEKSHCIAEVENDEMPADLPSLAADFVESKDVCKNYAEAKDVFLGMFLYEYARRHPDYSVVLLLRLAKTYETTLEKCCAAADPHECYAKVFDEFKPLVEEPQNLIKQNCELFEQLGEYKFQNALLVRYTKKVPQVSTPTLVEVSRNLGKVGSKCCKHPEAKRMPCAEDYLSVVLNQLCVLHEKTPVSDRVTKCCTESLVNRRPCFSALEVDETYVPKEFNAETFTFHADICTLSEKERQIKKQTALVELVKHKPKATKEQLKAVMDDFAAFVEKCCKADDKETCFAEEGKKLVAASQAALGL

B1: 220909 (designed binder)
fusion protein: MQIFVKTLTGKTITLEVEPSDTTENVKAKIQDKEGIPPDQQTLAFVGKQLEDGRTLSDYNIQKESTLWLYLTLRAAMRIFVKTHTGKTITLDVEPSDTIENVKAKIQDKEGIPPDQQRLIWAGKQLEDGRTLSDYNIQEWAILHLVLRLRAALAEAKVLALKELDKYGISNYYKNLINNAKTIEGVEGLKDAILAA
notes: order of parts as in the construct name; also called 206479_c47
Which Kd (human serum albumin) does the source give for B1 here?
Its Kd is 20.8 nM.

B2: 221980 (designed binder)
fusion protein: MQIFVKTLTGKTITLEVEPSDTTENVKAKIQDKEGIPPDQQTLAFVGKQLEDGRTLSDYNIQKESTLWLYLTLRAAMRIFVKTHTGKTITLDVEPSDTIENVKAKIQDKEGIPPDQQRLIWAGKQLEDGRTLSDYNIQEWAILHLVLRLRAALAEAKVLALKELDKYGISNYYKNLIDKAKTIEGVEALKDAILAA
notes: order of parts as in the construct name; also called 206479_c29
For B2, which Kd (human serum albumin) is on record?
Its Kd is 1.5 nM.

B3: 220883 (designed binder)
fusion protein: MQIFVKTLTGKTITLEVEPSDTTENVKAKIQDKEGIPPDQQTLAFVGKQLEDGRTLSDYNIQKESTLWLYLTLRAAMRIFVKTHTGKTITLDVEPSDTIENVKAKIQDKEGIPPDQQRLIWAGKQLEDGRTLSDYNIQEWAILHLVLRLRAALAEAKVLALKELDKYGISNYYKNLINRAKTIEGVKALKDEIVAA
notes: order of parts as in the construct name; also called 206479_c44
B3 was tested. Which Kd (human serum albumin) did it give?
The Kd was 2.8 nM.

B4: 220898 (designed binder)
fusion protein: MQIFVKTLTGKTITLEVEPSDTTENVKAKIQDKEGIPPDQQTLAFVGKQLEDGRTLSDYNIQKESTLWLYLTLRAAMRIFVKTHTGKTITLDVEPSDTIENVKAKIQDKEGIPPDQQRLIWAGKQLEDGRTLSDYNIQEWAILHLVLRLRAALAEAKVLALKELDKYGISNYYKNLIDKAKTIEGVEALKDAILAA
notes: order of parts as in the construct name; also called 206479_c48
B4 was tested. Which Kd (human serum albumin) did it give?
The Kd was 3.4 nM.

B5: fusion protein 218700 (designed binder)
chain: MQIFVKTLTPEWHIIGKTITLEVEPSDTIENVKAKIQDKEGIPPDQQNLAWAGKQLEDGRTLSDYNIQGGSMLMLKLHLRAAGGGGSGGGGSMQIFVKTLTPEWHIIGKTITLEVEPSDTIENVKAKIQDKEGIPPDQQNLAWAGKQLEDGRTLSDYNIQGGSMLMLKLHLRAAGGGGSGGGGSLAEAKVLALKELDKYGISNYYKNLINNAKTVEGVKALKEAIVAA
Which Kd (hFAP-Fc [1]) does the source give for B5 here?
The Kd was 0.1 nM.

What about the Kd (hFAP-Fc [2]) of the same binder?
Its Kd is 0.55 nM.

And the Kd (hFAP-Fc [3])?
The Kd was 0.12 nM.

And the Kd (hFAP-Fc [4])?
Its Kd is 0.72 nM.

What about the “increase of KD vs target [fold]” value (hFAP-Fc [5]) of the same binder?
The value was 1.2 fold.

And the “increase of KD vs target [fold]” value (hFAP-Fc [6])?
Its value is 1.31 fold.

B6: 217832 (FAP specific targeting moiety without albumin binding domain) (designed binder)
chain: MQIFVWTRINKLITLEVEPSDTIENVKAKIQDKEGIPPDQQSLYWKGKQLEDGRTLSDYNINIWPNLYLSLRAA
notes: also called CID 217832
How did the Kd (hFAP-Fc [1]) turn out when B6 was run?
The Kd was 0.31 nM.

And the Kd (hFAP-Fc [2])?
The Kd was 0.35 nM.

What about the Kd (hFAP-Fc [3]) of the same binder?
Its Kd is 0.71 nM.

And the Kd (hFAP-Fc [4])?
Its Kd is 0.54 nM.

What about the “increase of KD vs target [fold]” value (hFAP-Fc [5]) of the same binder?
Its value is 2.29 fold.

And the “increase of KD vs target [fold]” value (hFAP-Fc [6])?
Its value is 1.56 fold.

B7: 217990 (FAP specific targeting moiety without albumin binding domain) (designed binder)
chain: MQIFVKTLTPEWHIIGKTITLEVEPSDTIENVKAKIQDKEGIPPDQQNLAWAGKQLEDGRTLSDYNIQGGSMLMLKLHLRAA
notes: also called CID 217990
What does the source list for B7?
Kd (hFAP-Fc [1]): 0.73 nM; Kd (hFAP-Fc [2]): 1.17 nM; Kd (hFAP-Fc [3]): 1.1 nM; Kd (hFAP-Fc [4]): 1.18 nM; increase of KD vs target [fold] (hFAP-Fc [5]): 1.51 fold; increase of KD vs target [fold] (hFAP-Fc [6]): 1.01 fold

B8: fusion protein 220521 DOTA Lu (designed binder)
chain: MQIFVKTLTPEWHIIGKTITLEVEPSDTIENVKAKIQDKEGIPPDQQNLAWAGKQLEDGRTLSDYNIQGGSMLMLKLHLRAAGGGGSGGGGSMQIFVKTLTPEWHIIGKTITLEVEPSDTIENVKAKIQDKEGIPPDQQNLAWAGKQLEDGRTLSDYNIQGGSMLMLKLHLRAAGGGGSGGGGSLAEAKVLALKELDKYGISNYYKNLINNAKTVEGVKALKEAIVAAGGGGSGGGGSLAEAKVLALKELDKYGISNYYKNLINNAKTVEGVKALKEAIVAAC
modifications: Maleimide-DOTA coupled (site not stated), loaded with Lu
What does the source list for B8?
Kd (hFAP-Fc [7]): < 0.5 nM; Kd (mouse serum albumin): 0.9 nM

B9: fusion protein 220521 DOTA In (designed binder)
chain: MQIFVKTLTPEWHIIGKTITLEVEPSDTIENVKAKIQDKEGIPPDQQNLAWAGKQLEDGRTLSDYNIQGGSMLMLKLHLRAAGGGGSGGGGSMQIFVKTLTPEWHIIGKTITLEVEPSDTIENVKAKIQDKEGIPPDQQNLAWAGKQLEDGRTLSDYNIQGGSMLMLKLHLRAAGGGGSGGGGSLAEAKVLALKELDKYGISNYYKNLINNAKTVEGVKALKEAIVAAGGGGSGGGGSLAEAKVLALKELDKYGISNYYKNLINNAKTVEGVKALKEAIVAAC
modifications: Maleimide-DOTA coupled (site not stated), loaded with In
Which Kd (hFAP-Fc [7]) does the source give for B9 here?
Its Kd is less than 0.5 nM.

And the Kd (mouse serum albumin)?
The Kd was 0.9 nM.

B10: fusion protein 220518 DOTA Lu (designed binder)
chain: MQIFVKTLTPEWHIIGKTITLEVEPSDTIENVKAKIQDKEGIPPDQQNLAWAGKQLEDGRTLSDYNIQGGSMLMLKLHLRAAGGGGSGGGGSLAEAKVLALKELDKYGISNYYKNLINNAKTVEGVKALKEAIVAA
modifications: Maleimide-DOTA coupled (site not stated), loaded with Lu
B10 was tested. Which Kd (hFAP-Fc [7]) did it give?
The Kd was 6 nM.

What about the Kd (mouse serum albumin) of the same binder?
Its Kd is 38 nM.

B11: fusion protein 220519 DOTA Lu (designed binder)
chain: MQIFVKTLTPEWHIIGKTITLEVEPSDTIENVKAKIQDKEGIPPDQQNLAWAGKQLEDGRTLSDYNIQGGSMLMLKLHLRAAGGGGSGGGGSMQIFVKTLTPEWHIIGKTITLEVEPSDTIENVKAKIQDKEGIPPDQQNLAWAGKQLEDGRTLSDYNIQGGSMLMLKLHLRAAGGGGSGGGGSLAEAKVLALKELDKYGISNYYKNLINNAKTVEGVKALKEAIVAAC
modifications: Maleimide-DOTA coupled (site not stated), loaded with Lu
Which Kd (hFAP-Fc [7]) does the source give for B11 here?
The Kd was less than 1 nM.

And the Kd (mouse serum albumin)?
Its Kd is 67 nM.

B12: fusion protein 220520 DOTA Lu (designed binder)
chain: MQIFVKTLTPEWHIIGKTITLEVEPSDTIENVKAKIQDKEGIPPDQQNLAWAGKQLEDGRTLSDYNIQGGSMLMLKLHLRAAGGGGSGGGGSLAEAKVLALKELDKYGISNYYKNLINNAKTVEGVKALKEAIVAAGGGGSGGGGSLAEAKVLALKELDKYGISNYYKNLINNAKTVEGVKALKEAIVAA
modifications: Maleimide-DOTA coupled (site not stated), loaded with Lu
Which results are given for B12?
Kd (hFAP-Fc [7]): 5.9 nM; Kd (mouse serum albumin): < 1 nM
